Source: the supplement of paper PMC4604168 (melanoma cell lines)
Some of the results follow. Repeats are few or missing, and single values can be far off.

These molecules were tested on SkMel30 (assay: cell count relative to DMSO control; melanoma cells; higher = more viable cells). Conditions: library dose: low library concentration; 72 h.
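Further: cell number obtained by counting DAPI-stained nuclei in high-throughput microscope images with image analysis software, screen run in 1,536-well plates.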

SMILES | cell count [%]
C[C@]1(O)C[C@@H](c2nc(-c3ccc4ccc(-c5ccccc5)nc4c3)c3c(N)nccn32)C1 + CN(NC(=O)CC(=O)NN(C)C(=S)c1ccccc1)C(=S)c1ccccc1 [STA4783] (first compound 0.4 µM, partner dose 0.006 µM) | 96.4
C[C@]1(O)C[C@@H](c2nc(-c3ccc4ccc(-c5ccccc5)nc4c3)c3c(N)nccn32)C1 + NCC(=O)Nc1ccc(-n2nc(C(F)(F)F)cc2-c2ccc3c(ccc4ccccc43)c2)cc1 [OSU03012] (first compound 0.4 µM, partner dose 1 µM) | 52.9
CCN(CC)CCNC(=O)c1c(C)[nH]c(/C=C2\C(=O)Nc3ccc(F)cc32)c1C [sunitinib] + Oc1nc(-c2ccc(C(F)(F)F)cc2)nc2c1CSCC2 [XAV939] (first compound 0.4 µM, partner dose 2 µM) | 75.5
C[C@]1(O)C[C@@H](c2nc(-c3ccc4ccc(-c5ccccc5)nc4c3)c3c(N)nccn32)C1 + CC(C)CCN1c2nc(Nc3cc(F)c(O)c(F)c3)ncc2N(C)C(=O)C1C [BID1870] (first compound 0.4 µM, partner dose 0.2 µM) | 74.1
CCN(CC)CCNC(=O)c1c(C)[nH]c(/C=C2\C(=O)Nc3ccc(F)cc32)c1C [sunitinib] + COc1cc(N2CCC(N3CCN(C)CC3)CC2)ccc1Nc1ncc(Cl)c(Nc2ccccc2S(=O)(=O)C(C)C)n1 [NVP-TAE684] (first compound 0.4 µM, partner dose 0.08 µM) | 65.8
CCN(CC)CCNC(=O)c1c(C)[nH]c(/C=C2\C(=O)Nc3ccc(F)cc32)c1C [sunitinib] + CCc1ccc(CCOc2ccc(CC3SC(=O)NC3=O)cc2)nc1 [pioglitazone] (first compound 0.4 µM, partner dose 2 µM) | 72.1
C[C@]1(O)C[C@@H](c2nc(-c3ccc4ccc(-c5ccccc5)nc4c3)c3c(N)nccn32)C1 + NC(=O)Nc1cc(-c2cccc(F)c2)sc1C(=O)N[C@H]1CCCNC1 [AZD7762] (first compound 0.4 µM, partner dose 0.02 µM) | 84.9
C[C@]1(O)C[C@@H](c2nc(-c3ccc4ccc(-c5ccccc5)nc4c3)c3c(N)nccn32)C1 + c1cc(-c2cnn3cc(-c4ccc(OCCN5CCCCC5)cc4)cnc23)ccn1 [Dorsomorphin] (first compound 0.4 µM, partner dose 0.4 µM) | 96.9
COc1cc([C@@H]2c3cc4c(cc3[C@@H](O[C@@H]3O[C@@H]5CO[C@@H](C)O[C@H]5[C@H](O)[C@H]3O)[C@H]3COC(=O)[C@H]23)OCO4)cc(OC)c1O [etoposide] + COc1cc(N2CCC(N3CCN(C)CC3)CC2)ccc1Nc1ncc(Cl)c(Nc2ccccc2S(=O)(=O)C(C)C)n1 [NVP-TAE684] (first compound 0.02 µM, partner dose 0.08 µM) | 83.7
CCN(CC)CCNC(=O)c1c(C)[nH]c(/C=C2\C(=O)Nc3ccc(F)cc32)c1C [sunitinib] + CCCCCCCCCCCC1=C(O)C(=O)C=C(O)C1=O [Embelin] (first compound 0.4 µM, partner dose 1.2 µM) | 79
Cn1cnc2c(F)c(Nc3ccc(Br)cc3Cl)c(C(=O)NOCCO)cc21 [selumetinib] + CO[C@@H]1[C@H](N(C)C(=O)c2ccccc2)C[C@H]2O[C@]1(C)n1c3ccccc3c3c4c(c5c6ccccc6n2c5c31)C(=O)NC4 [Midostaurin] (first compound 0.015 µM, partner dose 0.08 µM) | 79.1
COc1cc([C@@H]2c3cc4c(cc3[C@@H](O[C@@H]3O[C@@H]5CO[C@@H](C)O[C@H]5[C@H](O)[C@H]3O)[C@H]3COC(=O)[C@H]23)OCO4)cc(OC)c1O [etoposide] + NC(=O)Nc1cc(-c2cccc(F)c2)sc1C(=O)N[C@H]1CCCNC1 [AZD7762] (first compound 0.02 µM, partner dose 0.02 µM) | 96.5
Cn1cnc2c(F)c(Nc3ccc(Br)cc3Cl)c(C(=O)NOCCO)cc21 [selumetinib] + Oc1nc(-c2ccc(C(F)(F)F)cc2)nc2c1CSCC2 [XAV939] (first compound 0.015 µM, partner dose 2 µM) | 61.3
CCN(CC)CCNC(=O)c1c(C)[nH]c(/C=C2\C(=O)Nc3ccc(F)cc32)c1C [sunitinib] + NC(=O)Nc1cc(-c2cccc(F)c2)sc1C(=O)N[C@H]1CCCNC1 [AZD7762] (first compound 0.4 µM, partner dose 0.02 µM) | 43.9
C[C@]1(O)C[C@@H](c2nc(-c3ccc4ccc(-c5ccccc5)nc4c3)c3c(N)nccn32)C1 + O=S(=O)(c1ccccc1)N(CC(F)(F)F)c1ccc(C(O)(C(F)(F)F)C(F)(F)F)cc1 [T0901317] (first compound 0.4 µM, partner dose 1.4 µM) | 81.3
CCN(CC)CCNC(=O)c1c(C)[nH]c(/C=C2\C(=O)Nc3ccc(F)cc32)c1C [sunitinib] + COc1cc(Nc2ncc(F)c(Nc3ccc4c(n3)NC(=O)C(C)(C)O4)n2)cc(OC)c1OC [Tamatinib] (first compound 0.4 µM, partner dose 0.4 µM) | 80.7
C[C@]1(O)C[C@@H](c2nc(-c3ccc4ccc(-c5ccccc5)nc4c3)c3c(N)nccn32)C1 + COc1cc2c(Oc3ccc4[nH]c(C)cc4c3F)ncnc2cc1OCCCN1CCCC1 [cediranib] (first compound 0.4 µM, partner dose 0.4 µM) | 92.7
C[C@]1(O)C[C@@H](c2nc(-c3ccc4ccc(-c5ccccc5)nc4c3)c3c(N)nccn32)C1 + COc1cc2ncnc(Nc3ccc(Oc4ccccc4)cc3)c2cc1OC [SrcI1] (first compound 0.4 µM, partner dose 2 µM) | 71.6
CCN(CC)CCNC(=O)c1c(C)[nH]c(/C=C2\C(=O)Nc3ccc(F)cc32)c1C [sunitinib] + OCCn1cc(-c2cnc3nnn(Cc4ccc5ncccc5c4)c3n2)cn1 [PF04217903] (first compound 0.4 µM, partner dose 1 µM) | 76.2
Cn1cnc2c(F)c(Nc3ccc(Br)cc3Cl)c(C(=O)NOCCO)cc21 [selumetinib] + N#Cc1c(O)c2c(-c3ccc(-c4ccccc4O)cc3)csc2[nH]c1=O [A769662] (first compound 0.015 µM, partner dose 2 µM) | 66.2
Cn1cnc2c(F)c(Nc3ccc(Br)cc3Cl)c(C(=O)NOCCO)cc21 [selumetinib] + c1cc(-c2cnn3cc(-c4ccc(OCCN5CCCCC5)cc4)cnc23)ccn1 [Dorsomorphin] (first compound 0.015 µM, partner dose 0.4 µM) | 84.9
CCN(CC)CCNC(=O)c1c(C)[nH]c(/C=C2\C(=O)Nc3ccc(F)cc32)c1C [sunitinib] + CC(C)CCN1c2nc(Nc3cc(F)c(O)c(F)c3)ncc2N(C)C(=O)C1C [BID1870] (first compound 0.4 µM, partner dose 0.2 µM) | 67.7
COc1cc([C@@H]2c3cc4c(cc3[C@@H](O[C@@H]3O[C@@H]5CO[C@@H](C)O[C@H]5[C@H](O)[C@H]3O)[C@H]3COC(=O)[C@H]23)OCO4)cc(OC)c1O [etoposide] + COc1ccc(COc2ccc(Cc3cnc(N)nc3N)cc2OC)cc1 [GW2580] (first compound 0.02 µM, partner dose 1 µM) | 111
Cn1cnc2c(F)c(Nc3ccc(Br)cc3Cl)c(C(=O)NOCCO)cc21 [selumetinib] + NCC(=O)Nc1ccc(-n2nc(C(F)(F)F)cc2-c2ccc3c(ccc4ccccc43)c2)cc1 [OSU03012] (first compound 0.015 µM, partner dose 1 µM) | 52.6
COc1cc([C@@H]2c3cc4c(cc3[C@@H](O[C@@H]3O[C@@H]5CO[C@@H](C)O[C@H]5[C@H](O)[C@H]3O)[C@H]3COC(=O)[C@H]23)OCO4)cc(OC)c1O [etoposide] + O=C(CCCCCCC(=O)Nc1ccccc1)NO [vorinostat] (first compound 0.02 µM, partner dose 0.08 µM) | 90.3
C[C@]1(O)C[C@@H](c2nc(-c3ccc4ccc(-c5ccccc5)nc4c3)c3c(N)nccn32)C1 + CO[C@@H]1[C@H](N(C)C(=O)c2ccccc2)C[C@H]2O[C@]1(C)n1c3ccccc3c3c4c(c5c6ccccc6n2c5c31)C(=O)NC4 [Midostaurin] (first compound 0.4 µM, partner dose 0.08 µM) | 112
CCN(CC)CCNC(=O)c1c(C)[nH]c(/C=C2\C(=O)Nc3ccc(F)cc32)c1C [sunitinib] + C[C@@H]1CCN(C(=O)CC#N)C[C@@H]1N(C)c1ncnc2[nH]ccc12 [CP690550] (first compound 0.4 µM, partner dose 1 µM) | 106
Cn1cnc2c(F)c(Nc3ccc(Br)cc3Cl)c(C(=O)NOCCO)cc21 [selumetinib] + CCc1ccc(CCOc2ccc(CC3SC(=O)NC3=O)cc2)nc1 [pioglitazone] (first compound 0.015 µM, partner dose 2 µM) | 60
C[C@]1(O)C[C@@H](c2nc(-c3ccc4ccc(-c5ccccc5)nc4c3)c3c(N)nccn32)C1 + CCN(CC)CCCCNc1ncc2cc(-c3cc(OC)cc(OC)c3)c(NC(=O)NC(C)(C)C)nc2n1 [PD173074] (first compound 0.4 µM, partner dose 0.1 µM) | 95.9
